Measured values reported in article PMC4336329 (PLoS ONE, 2015).
The campaign covered roughly 310,000 compounds. About 2,200 (0.71%) showed an effect of 50% or more. Effects have a minus sign here. The list shows a part of the results.

What follows are compounds tested against human ether-à-go-go-related gene (hERG) potassium channel (human, UniProt Q12809) (assay: primary screen, population patch clamp on CHO cells stably expressing hERG).
Sequence of human ether-à-go-go-related gene (hERG) potassium channel (Q12809 whole entry, looked up): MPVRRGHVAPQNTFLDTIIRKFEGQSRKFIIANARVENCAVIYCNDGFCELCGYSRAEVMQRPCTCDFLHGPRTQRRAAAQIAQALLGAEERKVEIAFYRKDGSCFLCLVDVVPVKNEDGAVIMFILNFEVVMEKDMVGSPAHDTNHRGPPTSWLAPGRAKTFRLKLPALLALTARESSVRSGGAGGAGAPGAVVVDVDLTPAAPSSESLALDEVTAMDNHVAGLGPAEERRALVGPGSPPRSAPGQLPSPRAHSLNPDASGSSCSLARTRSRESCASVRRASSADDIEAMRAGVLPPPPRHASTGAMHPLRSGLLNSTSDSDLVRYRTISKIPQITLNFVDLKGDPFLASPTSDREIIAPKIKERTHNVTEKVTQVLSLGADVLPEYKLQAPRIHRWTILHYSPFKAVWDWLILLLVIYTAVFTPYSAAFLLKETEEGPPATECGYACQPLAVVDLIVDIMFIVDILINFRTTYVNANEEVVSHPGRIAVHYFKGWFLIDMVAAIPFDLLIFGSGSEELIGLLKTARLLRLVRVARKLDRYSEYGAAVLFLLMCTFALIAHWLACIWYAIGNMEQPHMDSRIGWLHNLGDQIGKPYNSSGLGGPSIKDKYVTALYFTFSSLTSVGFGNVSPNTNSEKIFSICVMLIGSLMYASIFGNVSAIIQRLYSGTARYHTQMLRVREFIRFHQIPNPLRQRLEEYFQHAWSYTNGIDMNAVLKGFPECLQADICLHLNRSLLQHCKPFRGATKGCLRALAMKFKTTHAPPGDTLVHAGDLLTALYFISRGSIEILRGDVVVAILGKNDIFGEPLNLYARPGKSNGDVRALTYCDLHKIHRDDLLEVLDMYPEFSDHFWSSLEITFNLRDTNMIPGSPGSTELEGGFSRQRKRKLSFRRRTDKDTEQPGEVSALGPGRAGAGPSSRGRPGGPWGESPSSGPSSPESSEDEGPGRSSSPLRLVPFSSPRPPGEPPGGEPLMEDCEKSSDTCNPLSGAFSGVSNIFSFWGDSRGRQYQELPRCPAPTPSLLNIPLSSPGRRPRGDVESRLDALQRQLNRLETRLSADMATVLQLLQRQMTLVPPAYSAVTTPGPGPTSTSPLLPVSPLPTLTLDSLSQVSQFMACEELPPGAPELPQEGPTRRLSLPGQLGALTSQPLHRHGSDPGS

SMILES	hERG current change (%, negative = inhibition) at 1uM
c1ccc(CNc2ncnc3sc4c(c23)CCC4)nc1	1.23%
COc1ccccc1/C=N/NC(=O)Cn1cnc([N+](=O)[O-])n1	4.13%
O=S(=O)(Nc1ccccn1)c1cccc(S(=O)(=O)c2ccc(Cl)cc2)c1	1.05%
O=C(O)C1(c2ccc(Cl)cc2)CCC1	6.33%
Cc1cc(-c2n[nH]c(=S)n2/N=C/c2ccco2)n[nH]1	7.18%
NC(=O)C1(N2CCCCC2)CCN(C(=O)CCCn2c(=O)[nH]c3ccsc3c2=O)CC1	11.5%
CC(=O)C1=C(O)C(=O)N(c2ccc(C)cc2)C1c1ccccn1 (stereo not shown)	22.3%
CCC(=O)NC(=S)Nc1ccc(NC(=O)c2ccco2)c(OC)c1	2.73%
C=CCn1c(N2CCCCCC2)nc2c1c(=O)[nH]c(=O)n2C	9.96%
O=C(Nc1ccncc1)Nc1ccc(Cl)cc1	4.74%
CCc1nnc(NC(=O)CSc2nc(-c3ccccc3)cc(-c3ccc(F)cc3)c2C#N)s1	7.84%
CC1(C)O[C@H]2CC(=O)OCC23[C@H]2CC[C@@]4(C)[C@H](c5ccoc5)OC(=O)[C@H]5O[C@]54[C@]2(C)C(=O)C[C@@H]13 (stereo partly shown)	5.99%
Cc1cccc(NC(=O)CN2C(=O)C(C)Oc3ccccc32)n1 (stereo not shown)	2.69%
NC(=O)c1cc2cc(Br)ccc2oc1=NCc1ccccc1	7.09%
O=C1CN(C(=O)CNCc2ccccc2)c2ccccc2N1	3.99%
CCCCN(C(=O)C(C)Oc1ccc(Cl)cc1)c1c(N)n(CCCC)c(=O)[nH]c1=O (stereo not shown)	1.24%
O=C(CN1CCN(C(=O)c2cccc(S(=O)(=O)N3CCCC3)c2)CC1)Nc1ccccc1Cl	-9.25%
C=CCN1C(=O)CN=C1NCc1ccccc1.Cl	5.45%
Cc1ccc(C)c(N(CC(=O)Nc2cc(Cl)ccc2Oc2ccccc2)S(C)(=O)=O)c1	5.82%
CCC(C)c1ccc2oc(-c3ccc(NC(=O)c4ncn[nH]4)cc3)nc2c1 (stereo not shown)	4.45%
COc1cccc(S(=O)(=O)NCc2ccc(C(=O)NCc3ccco3)cc2)c1	9.85%
Cc1ccc(C(=O)Oc2ccc(C(=O)COC(=O)C3CC(=O)N(Cc4ccco4)C3)cc2)cc1 (stereo not shown)	-2.92%

SMILES	hERG current change (%, negative = inhibition) at 1uM
Cc1cccc(NCc2ccccc2O)n1	11%
CN(/C(=N\S(=O)(=O)c1ccccc1)C(F)(F)F)c1ccccc1	6.47%
O=C(CSC(=S)N1CCCCC1)N1N=CCC1c1ccccc1 (stereo not shown)	14%
COc1cc(C2C(C(=O)c3ccc(C)o3)=C(O)C(=O)N2c2cc(C)on2)ccc1OCc1ccccc1 (stereo not shown)	10.2%
COc1ccccc1C(=O)OCC(=O)Nc1ccccc1OC(F)F	3.73%
O=C(CCC(=O)N/N=C/c1ccc(Br)o1)N/N=C/c1ccc(Br)o1	12.2%
COc1ccc(NC(=O)Cc2nnc(SCC(=O)NC3CCCCC3C)n2C)cc1 (stereo not shown)	11.9%
COc1cc(/C=N\N=C2/SC(CC(=O)O)C(=O)N2c2ccc(O)cc2)ccc1O (stereo not shown)	14.9%
O=C(NCc1ccco1)NCC(F)(F)F	12.2%
O=C(CN1C(=O)C2(OCCCO2)c2ccccc21)NCCc1ccccc1	2.73%
Cc1nnc(NC(=O)c2ccc(S(=O)(=O)C(F)F)cc2)s1	-3.95%
O=C(c1ccc(Cn2cc(Br)cn2)cc1)N1N=C(C(F)F)CC1(O)C(F)F (stereo not shown)	10.3%
CCOC(=O)N/N=C/c1ccc(OCCSc2ccc(Cl)cc2)c(OCC)c1	-3.36%
Cc1nc2c(C)cccn2c(=O)c1NC(=O)c1ccco1	-9%
Cc1cc(C(=O)OCC(=O)N(C)c2c(N)n(Cc3ccccc3)c(=O)[nH]c2=O)c(C)n1-c1ccccc1	12.1%
O=C(CCc1ccccc1)Nc1nc2ccc(S(=O)(=O)N3CCOCC3)cc2s1	13.2%
CCC(=O)c1ccc(N2CCN(C(=O)c3ccccc3)CC2)c(F)c1	-23.4%
CC(C)(C)NCCOCCOc1ccccc1-c1ccccc1.O=C(O)C(=O)O	-7.71%
O=C(c1ccco1)N1CCN(C(=O)c2sccc2-c2ccccc2)CC1	3.23%
CCOc1ccccc1NC(=O)C1CCCN(S(=O)(=O)c2cccc3cccnc23)C1 (stereo not shown)	1.54%
Cc1nc(C)c(-c2csc(Nc3ccc(F)cc3)n2)s1	-6.6%
